# The supplement of paper PMC10037445
# ± gives the standard deviation of the averaged measurements. Whole data set: some 2,900 compounds, median “IRF Lucia reporter activity, fold change vs agonist alone” near 0.9, cut for the highest 2% near 2.8. The list shows a part of the results.
# Tests used:
# RAW-Dual [1] = assay: IRF Lucia reporter activity, fold change vs agonist alone; higher = enhanced IRF activity; conditions: agonist: MPLA (TLR4) […]
# Summary of the method: (§1)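 Reporter activity is given as fold change relative to agonist-alone wells. To measure it, 50 nL of library stock was pin-tooled onto RAW-Dual macrophages (50,000 cells/well, DMEM, 384-well plates), a PRR agonist followed 1 h later, and cells stayed at 37 °C, 5% CO2. Twenty hours on, supernatant was assayed for IRF (QuantiLuc luminescence) and NF-κB (QuantiBlue, 620 nm absorbance), and wells under 70% of agonist-control IncuCyte confluency in both mask sets were marked cytotoxic.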
# RAW-Dual [2] = assay: IRF Lucia reporter activity, fold change vs agonist alone; cytotoxicity flag (confluency mask): not cytotoxic; higher = enhanced IRF activity
# Summary of the method: as §1
# RAW-Dual [3] = assay: IRF Lucia reporter activity, fold change vs agonist alone; cytotoxicity flag (confluency mask): cytotoxic (confluency <70% of control); higher = enhanced IRF activity
# Summary of the method: as §1
# [4] = library stock concentration (final ~1000-fold dilution): 10 mM, cytotoxicity flag (confluency mask): not cytotoxic
# [5] = agonist: 3'3'-cGAMP (STING) 10 ug/mL
# [6] = library stock concentration (final ~1000-fold dilution): 10 mM, cytotoxicity flag (confluency mask): cytotoxic (confluency <70% of control)
smiles,measurement,setting,value
O=C(O)COCCN1CCN(C(c2ccccc2)c2ccc(Cl)cc2)CC1 (stereo not given),IRF Lucia reporter activity,RAW-Dual [1]; [4],1.02
O=C(O)COCCN1CCN(C(c2ccccc2)c2ccc(Cl)cc2)CC1 (stereo not given) (library stock concentration (final ~1000-fold dilution): 10 mM),IRF Lucia reporter activity,RAW-Dual [2]; [5],0.975
same,IRF Lucia reporter activity,RAW-Dual [2]; agonist: LPS (TLR4) 0.1 ug/mL,1.19
CC(C)NCC(C(=O)N1CCN(c2ncnc3c2C(C)CC3O)CC1)c1ccc(Cl)cc1 (stereo not given),IRF Lucia reporter activity,RAW-Dual [1]; [4],1.07
CC(C)NCC(C(=O)N1CCN(c2ncnc3c2C(C)CC3O)CC1)c1ccc(Cl)cc1 (stereo not given) (library stock concentration (final ~1000-fold dilution): 10 mM),IRF Lucia reporter activity,RAW-Dual [2]; [5],0.847
same,IRF Lucia reporter activity,RAW-Dual [2]; agonist: LPS (TLR4) 0.1 ug/mL,1.02
Cc1nnsc1C(=O)Nc1ccc(-n2nc(C(F)(F)F)cc2C(F)(F)F)cc1 (library stock concentration (final ~1000-fold dilution): 10 mM),IRF Lucia reporter activity,RAW-Dual [3]; [5],0.929
same,IRF Lucia reporter activity,RAW-Dual [3]; agonist: LPS (TLR4) 0.1 ug/mL,1
C=CC(=O)Nc1cccc(Nc2nc(Nc3ccc(Oc4ccnc(C(=O)NC)c4)cc3)ncc2F)c1,IRF Lucia reporter activity,RAW-Dual [1]; [4],0.0755
C=CC(=O)Nc1cccc(Nc2nc(Nc3ccc(Oc4ccnc(C(=O)NC)c4)cc3)ncc2F)c1 (library stock concentration (final ~1000-fold dilution): 10 mM),IRF Lucia reporter activity,RAW-Dual [2]; [5],0.017
same,IRF Lucia reporter activity,RAW-Dual [2]; agonist: LPS (TLR4) 0.1 ug/mL,0.137
CCCOC(=O)c1cc(O)c(O)c(O)c1,IRF Lucia reporter activity,RAW-Dual [1]; [4],0.817
CCCOC(=O)c1cc(O)c(O)c(O)c1 (library stock concentration (final ~1000-fold dilution): 10 mM),IRF Lucia reporter activity,RAW-Dual [2]; [5],0.151
same,IRF Lucia reporter activity,RAW-Dual [2]; agonist: LPS (TLR4) 0.1 ug/mL,0.574
CN1CCN(C2=Nc3ccccc3Oc3ccc(Cl)cc32)CC1.O=C(O)CCC(=O)O,IRF Lucia reporter activity,RAW-Dual [1]; [4],1.26
CN1CCN(C2=Nc3ccccc3Oc3ccc(Cl)cc32)CC1.O=C(O)CCC(=O)O (library stock concentration (final ~1000-fold dilution): 10 mM),IRF Lucia reporter activity,RAW-Dual [2]; [5],1.11
same,IRF Lucia reporter activity,RAW-Dual [2]; agonist: LPS (TLR4) 0.1 ug/mL,1.72
CC(C)c1c(-c2ccccc2)[nH]c2c(C#N)cnn2c1=O.Cl (library stock concentration (final ~1000-fold dilution): 10 mM),IRF Lucia reporter activity,RAW-Dual [2]; [5],1.02
same,IRF Lucia reporter activity,RAW-Dual [2]; agonist: LPS (TLR4) 0.1 ug/mL,1.04
O=C1NC(=O)/C(=C\c2ccc(-c3ccc(F)cc3)o2)S1,IRF Lucia reporter activity,RAW-Dual [1]; [4],0.949
O=C1NC(=O)/C(=C\c2ccc(-c3ccc(F)cc3)o2)S1 (library stock concentration (final ~1000-fold dilution): 10 mM),IRF Lucia reporter activity,RAW-Dual [2]; [5],0.904
same,IRF Lucia reporter activity,RAW-Dual [2]; agonist: LPS (TLR4) 0.1 ug/mL,1.09
CCN(CC)CC(O)CNc1ccc(NCC2CO2)c2c1C(=O)c1ccccc1C2=O (stereo not given) (library stock concentration (final ~1000-fold dilution): 10 mM),IRF Lucia reporter activity,RAW-Dual [3]; [5],0.0163
same,IRF Lucia reporter activity,RAW-Dual [3]; agonist: LPS (TLR4) 0.1 ug/mL,0.0453
Cl.O=c1[nH]ccc2c(S(=O)(=O)N3CCCNCC3)cccc12 (library stock concentration (final ~1000-fold dilution): 10 mM),IRF Lucia reporter activity,RAW-Dual [2]; [5],1.12
same,IRF Lucia reporter activity,RAW-Dual [2]; agonist: LPS (TLR4) 0.1 ug/mL,1.16
C=CC(=O)Nc1cc(Nc2nccc(-c3c[nH]c4ccccc34)n2)c(OC)cc1N(C)CCN(C)C (library stock concentration (final ~1000-fold dilution): 10 mM),IRF Lucia reporter activity,RAW-Dual [2]; [5],1.06
same,IRF Lucia reporter activity,RAW-Dual [2]; agonist: LPS (TLR4) 0.1 ug/mL,0.526
C=CC(=O)Nc1cc(Nc2nccc(-c3c[nH]c4ccccc34)n2)c(OC)cc1N(C)CCN(C)C,IRF Lucia reporter activity,RAW-Dual [1]; [4],1.11
O=[N+]([O-])c1cncn1CCN1CCOCC1,IRF Lucia reporter activity,RAW-Dual [1]; [4],1.09
O=[N+]([O-])c1cncn1CCN1CCOCC1 (library stock concentration (final ~1000-fold dilution): 10 mM),IRF Lucia reporter activity,RAW-Dual [2]; [5],1.06
same,IRF Lucia reporter activity,RAW-Dual [2]; agonist: LPS (TLR4) 0.1 ug/mL,0.881
Br.Br.Br.Br.Br.Br.c1ccc(CNCc2ccc(CN3CCCNCCNCCCNCC3)cc2)nc1,IRF Lucia reporter activity,"RAW-Dual [1]; library stock concentration (final ~1000-fold dilution): 10 mM water, cytotoxicity flag (confluency mask): not cytotoxic",1.35
Br.Br.Br.Br.Br.Br.c1ccc(CNCc2ccc(CN3CCCNCCNCCCNCC3)cc2)nc1 (library stock concentration (final ~1000-fold dilution): 10 mM water),IRF Lucia reporter activity,RAW-Dual [2]; [5],1.07
same,IRF Lucia reporter activity,RAW-Dual [2]; agonist: LPS (TLR4) 0.1 ug/mL,0.886
Cc1ccc(NCCCc2ccccc2)c(N)c1 (library stock concentration (final ~1000-fold dilution): 10 mM),IRF Lucia reporter activity,RAW-Dual [2]; [5],0.0185
same,IRF Lucia reporter activity,RAW-Dual [2]; agonist: LPS (TLR4) 0.1 ug/mL,0.227
same,IRF Lucia reporter activity,RAW-Dual [3]; [5],0.0343 ± 0.017
same,IRF Lucia reporter activity,RAW-Dual [3]; agonist: LPS (TLR4) 0.1 ug/mL,0.583 ± 0.55
Cc1ccc(NCCCc2ccccc2)c(N)c1,IRF Lucia reporter activity,RAW-Dual [1]; [6],0.697 ± 0.18
C=CC(=O)Nc1cc(Nc2nccc(-c3cn(C)c4ccccc34)n2)c(OC)cc1N(C)CCN(C)C (library stock concentration (final ~1000-fold dilution): 10 mM),IRF Lucia reporter activity,RAW-Dual [3]; [5],0.0154
same,IRF Lucia reporter activity,RAW-Dual [3]; agonist: LPS (TLR4) 0.1 ug/mL,0.408
C=CC(=O)Nc1cc(Nc2nccc(-c3cn(C)c4ccccc34)n2)c(OC)cc1N(C)CCN(C)C,IRF Lucia reporter activity,RAW-Dual [1]; [6],0.0182
CCN(CC)CCCCC(NC(=O)C(CC(C)C)NC(=O)C(C)NC(=O)C(Cc1ccccc1)NC(=O)c1ccc(C(C)(C)C)cc1)C(=O)NC(CO)C(=O)OC (stereo not given) (library stock concentration (final ~1000-fold dilution): 10 mM),IRF Lucia reporter activity,RAW-Dual [2]; [5],1.06
same,IRF Lucia reporter activity,RAW-Dual [2]; agonist: LPS (TLR4) 0.1 ug/mL,1.16
